Assay results taken from the supplement of paper PMC4604168 (melanoma cell lines).
This is one part of the list. Repeats are few or missing, and single values can be far off.

Experiments:
Test in all cases: cell count relative to DMSO control; melanoma cells; higher = more viable cells
Details in all cases: library dose: standard library concentration; 72 h
[1] = test system: G361
[2] = test system: IPC-298
[3] = test system: IST-MEL1
[4] = test system: LB2518-MEL
[5] = test system: LOXIMVI
[6] = test system: MEL-HO
[7] = test system: MZ2-MEL
[8] = test system: MeWo
[9] = test system: RPMI7951
[10] = test system: RVH-421
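Further: cells treated in 1,536-well plates, then fixed and DAPI-stained, with nuclei counted from automated high-throughput microscope images.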

## Cn1c(=O)n(-c2ccc(C(C)(C)C#N)cc2)c2c3cc(-c4cnc5ccccc5c4)ccc3ncc21 + CN1CCN(c2ccc3nc(-c4c(N)c5c(F)cccc5[nH]c4=O)[nH]c3c2)CC1 [Dovitinib] (first compound 0.02 µM, partner dose 0.5 µM)
[1]
  cell count: 54.6%
[2]
  cell count: 58.6%
[3]
  cell count: 68.7%
[4]
  cell count: 68%
[5]
  cell count: 98.7%
[6]
  cell count: 55.1%
[7]
  cell count: 37.5%
[8]
  cell count: 73.7%
[9]
  cell count: 81.5%
[10]
  cell count: 80.3%

## COc1ccc(C2=N[C@@H](c3ccc(Cl)cc3)[C@@H](c3ccc(Cl)cc3)N2C(=O)N2CCNC(=O)C2)c(OC(C)C)c1 [Nutlin-3] + Cc1ccc(NC(=O)c2cccc(N(C)C)c2)cc1NC(=O)c1ccc(O)cc1 [ZM336372] (first compound 0.5 µM, partner dose 10 µM)
[1]
  cell count: 90.2%
[2]
  cell count: 116%
[3]
  cell count: 81.2%
[4]
  cell count: 105%
[5]
  cell count: 95.3%
[6]
  cell count: 95.3%
[7]
  cell count: 119%
[8]
  cell count: 96.9%
[9]
  cell count: 89.5%
[10]
  cell count: 75.5%

## Cn1c(=O)n(-c2ccc(C(C)(C)C#N)cc2)c2c3cc(-c4cnc5ccccc5c4)ccc3ncc21 + CNC(=O)c1cc(Oc2ccc(NC(=O)Nc3ccc(Cl)c(C(F)(F)F)c3)cc2)ccn1 [sorafenib] (first compound 0.02 µM, partner dose 2 µM)
[1]
  cell count: 57%
[2]
  cell count: 68.5%
[3]
  cell count: 75.6%
[5]
  cell count: 115%
[6]
  cell count: 74.2%
[8]
  cell count: 58.9%
[9]
  cell count: 80.8%
[10]
  cell count: 76.5%

## CC(C)C[C@H](NC(=O)[C@H](Cc1ccccc1)NC(=O)c1cnccn1)B(O)O [Bortezomib] + Cn1cncc1[C@@](N)(c1ccc(Cl)cc1)c1ccc2c(c1)c(-c1cccc(Cl)c1)cc(=O)n2C [tipifarnib] (first compound 0.005 µM, partner dose 0.05 µM)
[1]
  cell count: 0.965%
[2]
  cell count: 15.5%
[3]
  cell count: 12.4%
[5]
  cell count: 9.58%
[6]
  cell count: 49.1%
[8]
  cell count: 15%
[9]
  cell count: 4.76%
[10]
  cell count: 11.4%

## Cc1cn(-c2cc(NC(=O)c3ccc(C)c(Nc4nccc(-c5cccnc5)n4)c3)cc(C(F)(F)F)c2)cn1 [nilotinib] + O=C(O)c1ccc2c(c1)nc(Nc1cccc(Cl)c1)c1ccncc12 [CX4945] (first compound 1 µM, partner dose 2 µM)
[1]
  cell count: 52.1%
[2]
  cell count: 60.2%
[4]
  cell count: 97.7%
[5]
  cell count: 76.6%
[6]
  cell count: 60.8%
[7]
  cell count: 69%
[8]
  cell count: 92.3%
[9]
  cell count: 49%
[10]
  cell count: 48.5%

## Cn1c(=O)n(-c2ccc(C(C)(C)C#N)cc2)c2c3cc(-c4cnc5ccccc5c4)ccc3ncc21 + O=C(O)[C@@H]1[O][Sb](=[O])([O][Sb]2(=[O])[O][C@H]([C@H](O)CO)[C@H](O)[C@H](C(=O)O)[O]2)[O][C@H]([C@H](O)CO)[C@@H]1O [stibogluconate] (first compound 0.02 µM, partner dose 10 µM)
[1]
  cell count: 48%
[2]
  cell count: 66.6%
[3]
  cell count: 88%
[5]
  cell count: 68.5%
[6]
  cell count: 66%
[8]
  cell count: 71.3%
[9]
  cell count: 115%
[10]
  cell count: 72.9%

## Cc1cc(Nc2cc(N3CCN(C)CC3)nc(/C=C/c3ccccc3)n2)n[nH]1 + C=C(c1ccc(C(=O)O)cc1)c1cc2c(cc1C)C(C)(C)CCC2(C)C [Bexarotene] (first compound 0.2 µM, partner dose 10 µM)
[1]
  cell count: 80.2%
[2]
  cell count: 68.8%
[3]
  cell count: 80.3%
[5]
  cell count: 158%
[6]
  cell count: 85.9%
[8]
  cell count: 87%
[9]
  cell count: 97.6%
[10]
  cell count: 80.5%

## COc1ccc(C2=N[C@@H](c3ccc(Cl)cc3)[C@@H](c3ccc(Cl)cc3)N2C(=O)N2CCNC(=O)C2)c(OC(C)C)c1 [Nutlin-3] + O=C(CCCCCCC(=O)Nc1ccccc1)NO [vorinostat] (first compound 0.5 µM, partner dose 0.4 µM)
[1]
  cell count: 60.5%
[2]
  cell count: 87.4%
[3]
  cell count: 98.3%
[4]
  cell count: 54.1%
[5]
  cell count: 55.9%
[6]
  cell count: 91%
[7]
  cell count: 105%
[8]
  cell count: 78.9%
[9]
  cell count: 70.9%
[10]
  cell count: 60%

## Cc1cc(Nc2cc(N3CCN(C)CC3)nc(/C=C/c3ccccc3)n2)n[nH]1 + CN(NC(=O)CC(=O)NN(C)C(=S)c1ccccc1)C(=S)c1ccccc1 [STA4783] (first compound 0.2 µM, partner dose 0.03 µM)
[1]
  cell count: 45.3%
[2]
  cell count: 79.5%
[3]
  cell count: 22.1%
[5]
  cell count: 75%
[6]
  cell count: 81%
[8]
  cell count: 12.1%
[9]
  cell count: 78.7%
[10]
  cell count: 46.2%

## CC(C)C[C@H](NC(=O)[C@H](Cc1ccccc1)NC(=O)c1cnccn1)B(O)O [Bortezomib] + CCN(CC)CCCCNc1ncc2cc(-c3cc(OC)cc(OC)c3)c(NC(=O)NC(C)(C)C)nc2n1 [PD173074] (first compound 0.005 µM, partner dose 0.5 µM)
[1]
  cell count: 0.762%
[2]
  cell count: 21.5%
[3]
  cell count: 16.5%
[5]
  cell count: 41.7%
[6]
  cell count: 48.1%
[8]
  cell count: 10.2%
[9]
  cell count: 10.1%
[10]
  cell count: 30%
